Measurements reported in paper PMC4207660, “Identification and Characterization of Hundreds of Potent and Selective Inhibitors of Trypanosoma brucei Growth from a Kinase-Targeted Library Screening Campaign” (PLoS Neglected Tropical Diseases, 2014).

Key:
[1] = ChromlogD assay
Method: The Chromatographic Hydrophobicity Index (CHI)[22] values were measured using reversed phase HPLC column (Luna C18 (2), Phenomenex, UK) with a fast acetonitrile gradient at starting mobile phase of pH = 7.4. CHI values are derived directly from the gradient retention times by using a calibration line obtained for standard compounds. The CHI value approximates to the volume % organic concentration when the compound elutes. […] The average error of the assay is ±3 CHI unit or ±0.25 ChromlogD.

[2] = tested on: T. brucei brucei parasites (Lister 427 strain); experiment: Dose response growth inhibition assay (resazurin, 72 h); format: cell-based; details: Trypanosoma brucei; T. b. brucei growth inhibition; read-out: Tbb pEC50 (converted)
Method: Greiner sterile black clear bottom 384-well assay plates were pre-dispensing with 200 nL of compound in each well, from master plates at 1 mM (100% DMSO) containing selection from the GSK compound collection. Controls of 0% response (control 1, 200 nL of 100%DMSO) and 100% response (control 2, 200 nL of 1 mM pentamidine) were included in each assay plate in columns 6 and 18, respectively. Plates containing 200 nL of 100% DMSO were included randomly in the assay, to assess quality through all process. […] After this period, 10 µL of 200 µM resazurin solution in prewarmed HMI-9 were added to each well, and plates were allowed to incubate 2 hours more prior fluorescence reading in a Wallac EnVision Multilabel Plate Reader (Perkin-Elmer). Raw fluorescent data from the Envision plate reader were uploaded into GSK HTS database (ActivityBase). Activity of each well was normalized as a percentage of inhibition per-plate basis using the following equation: [drawing 1]
For dose-response experiments, serial compound dilutions of selected hits from the primary campaign were plotted against compound concentration. Dose response master plates were prepared by 3-fold dilutions (starting with 10 mM DMSO stock solutions), providing 11 concentrations. From these master plates, 200 nL per well was stamped in final assay plates, including the same controls describe in the primary single shot assay. […]

[3] = CLND kinetic solubility assay; format: physicochemical; details: phosphate buffered saline, pH 7.4, aqueous buffer, kinetic from dmso stock; Measured; read-out: Aq Sol
Method: 5 µL of 10 mM DMSO stock solution was diluted to 100 µL with pH 7.4 phosphate buffered saline, equilibrated for 1 hour at room temperature, filtered through Millipore MultiscreenHTS-PCF filter plates (MSSL BPC). The filtrate was quantified by suitably calibrated flow injection Chemi-Luminescent Nitrogen Detection.

[4] = target: T1, Human Serum Albumin (HSA) (Homo sapiens, UniProt P02768); experiment: Protein binding assay (HPLC stationary phase), HSA; format: in vitro ADME; details: Measured
T1 construct: purchased Chiral Technologies, France
Method: Chemically bonded Human Serum Albumin (HSA) and Alpha-1-acidglycoprotein HPLC stationary phases (Chiral Technologies, France) were used for measuring compounds' binding to plasma proteins, applying linear gradient elution up to 30% iso-propanol. The run time was 6 min, including the re-equilibration of the stationary phases with the 50 mM pH7.4 ammonium acetate buffer. The obtained gradient retention times were standardised using a calibration set of mixtures as described in the references. The average standard error of the assay depends on the binding strength and kinetics of the compounds.

[5] = target: Cytochrome P450 (CYP450) (Homo sapiens, UniProt P08684); experiment: Cytochrome P450 inhibition profile; format: in vitro ADME; details: Measured
Method: The P450 inhibition profile of the inhibitors was determined as previously described.

PFI [1] | solubility kinetic at 1 h [3] | HSA % binding [4] | IC50 ([5]; CYP3A4, VG substrate, read-out: CYP3A4VG pXC50 (converted)) | IC50 ([5]; CYP3A4, VR substrate, read-out: CYP3A4VR pXC50 (converted)) | SMILES | EC50 [2]
8.15 | – | – | – | – | COc1cc(Nc2ncc3c(C)nc(-c4ccco4)n3n2)cc(OC)c1OC [NEU-0001195] | 50.1 nM
– | ≥ 326 µM | 98.24% | – | – | Cc1occc1-c1ncc(O[C@H](CN)c2ccccc2)cc1-c1c[nH]c2ncccc12 [NEU-0001210] | –
– | 230 µM (≈ 94.4 µg/mL) | – | 1580 nM | 50100 nM | Nc1nc(Nc2ccc(S(N)(=O)=O)cc2)sc1C(=O)c1c(F)cccc1F [NEU-0001158] | 398 nM

≈ marks a conversion by molar mass, not a printed value. Like-named read-outs stand apart in the source and are kept apart here.
